This note sets out measurements from publication PMC6919601, “Identification of Plasmodium dipeptidyl aminopeptidase allosteric inhibitors by high throughput screening” (PLoS ONE, 2019).

Hit rate of the full screen: of about 110,000 compounds, about 230 (0.21%) showed an effect of 50% or more. The list shows a part of the results.
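Note: 30 min substrate incubation versus DMSO and 10 µM JCP410 controls.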

Chain of DPAP1 (Q8IIJ9 whole entry, looked up): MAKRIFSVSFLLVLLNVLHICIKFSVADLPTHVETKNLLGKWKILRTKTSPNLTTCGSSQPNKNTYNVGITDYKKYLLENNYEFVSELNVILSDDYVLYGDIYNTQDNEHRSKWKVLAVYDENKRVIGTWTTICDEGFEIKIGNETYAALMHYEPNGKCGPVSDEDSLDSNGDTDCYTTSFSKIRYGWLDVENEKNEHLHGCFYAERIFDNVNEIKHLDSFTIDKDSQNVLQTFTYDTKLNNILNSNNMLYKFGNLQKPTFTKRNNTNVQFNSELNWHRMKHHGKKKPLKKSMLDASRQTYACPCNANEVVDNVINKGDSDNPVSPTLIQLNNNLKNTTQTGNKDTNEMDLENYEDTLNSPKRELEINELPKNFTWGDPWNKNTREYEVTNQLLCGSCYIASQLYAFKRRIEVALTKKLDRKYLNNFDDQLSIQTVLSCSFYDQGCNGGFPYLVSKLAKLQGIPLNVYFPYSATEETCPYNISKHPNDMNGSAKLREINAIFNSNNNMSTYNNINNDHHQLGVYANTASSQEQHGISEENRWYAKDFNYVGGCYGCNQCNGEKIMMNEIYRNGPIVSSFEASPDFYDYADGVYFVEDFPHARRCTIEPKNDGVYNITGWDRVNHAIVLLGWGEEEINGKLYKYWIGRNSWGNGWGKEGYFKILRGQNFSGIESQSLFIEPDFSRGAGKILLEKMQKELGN

This assay concerns the target DPAP1 (Plasmodium falciparum, UniProt Q8IIJ9). In words: primary screen, percent inhibition; read by cleavage of a fluorogenic dipeptide substrate; higher = more effect of the substance. Also noted: species or system P. falciparum D10 trophozoite lysates; single well.
Consider `COc1ccc(CCNC2CCCCC2C)cc1OC` (centres unmarked), for which the “% Inhibition @ 10 uM” value is listed as 2.78%.
The figure for `CSc1nn(-c2ccccc2)c2nc(C)c(C(C)=O)c(N)c12` is -3.65%; for `CCCC[C@@H](/C=C/S(=O)(=O)c1ccccc1)NC(=O)[C@H](Cc1cc(I)c(O)c(I)c1)NC(=O)OC(C)(C)C` it is -8.26%.
The figure for `O=C(CSc1nc2cccnc2[nH]1)Nc1ccc(OC(F)(F)Cl)cc1` is -0.297%.
The figure for `CS(=O)(=O)n1nc(-c2ccco2)nc1NCc1ccc(Cl)cc1` is -5.31%.
With `CCCN1CN=C(Nc2nc(C)c3ccc(C)cc3n2)NC1`, the “% Inhibition @ 10 uM” value turned out to be 2.1%.
The figure for `O=C(COc1ccc(Br)cc1)NCCN1CCCC1` is -0.0619%.
As to `O=C(Nc1sc2c(c1CN1CCCCCC1)CCCC2)c1ccccc1`, the “% Inhibition @ 10 uM” value is reported as -2.21%.
As to `COc1ccccc1C(=O)n1nc(C)cc1C`, the “% Inhibition @ 10 uM” value is reported as 1.91%.
The result for `CC1CN(Cc2ccccc2Cl)CC(C)O1` (centres unmarked) reads 5.06%; that for `COc1cc(CN2CCC(Cc3ccccc3)CC2)cc2c1OCO2`, -8.01%; that for `CCN1CCCC1CNC(=O)Cn1ncc2c3ccccc3n(Cc3ccc(F)cc3)c2c1=O` (centres unmarked), -5.19%.
The result for `Cc1cc(N2CCCCCC2)nc2ccccc12` reads 0.51%.
The result for `CC(CCCC(C)(C)O)NC1CCC(C(C)(C)C)CC1` (centres unmarked) reads -3.27%.
As for `COc1ccc(CCN2C(=O)CN(CCc3ccccc3)CC2=O)cc1OC`, the “% Inhibition @ 10 uM” value is -1.74%.
Take `C=CCn1c(=N)c(C#N)cc2c(=O)n3cccc(C)c3nc21`: the “% Inhibition @ 10 uM” value is reported as -2.77%.
The figure for `CCN(CC)CCNC(=O)c1ccc(CS(=O)(=O)Cc2cccc(C)c2)o1` is -2.72%; for `Cc1ccc(S(=O)(=O)N(Cc2ccccc2)C(C)(C)C)cc1` it is -3.65%.
The figure for `CCCN(CCO)C/C(Cl)=C/c1ccccc1` is 2.5%; for `Cc1cccc(NC(=O)CN(Cc2ccc(F)cc2)S(=O)(=O)c2ccccc2)c1C` it is 0.583%.
As to `COc1ccc(CC(=O)Nc2c(-c3ccc(F)cc3)nc3ccccn23)cc1`, the “% Inhibition @ 10 uM” value is on record as -3.48%.
The figure for `CCOC(=O)c1c(-c2ccccc2)csc1NC(=O)c1cc(C2CC2)on1` is 1.23%.
Turning to `Cc1nn(-c2ccccc2)c2c1N(CC(=O)NCCc1ccc(Cl)cc1)C(=O)CS2`, the “% Inhibition @ 10 uM” value is -6.5%.
For the compound `CCCCN(CC)CCNC(=O)C1c2ccccc2C(=O)N(CCOC)C1c1cccs1` (centres unmarked), the “% Inhibition @ 10 uM” value is listed as 2.16%.
The result for `CCN(CCCNC(=O)c1cn(CCOC)c(=O)c2c1c1ccccc1n2C)Cc1ccccc1` reads 0.0221%.
The figure for `CC(C)C[C@H](NC(=O)c1ccc(-c2cccc(C(F)(F)F)c2)o1)C(=O)NCC#N` is 5.05%; for `CCN(CC)CCNC(=O)Nc1cn(CC(C)C)c(=O)c2ccccc12` it is -2.71%; for `CCOc1ccc(NC(=O)COc2ccc(C)c(C)c2)cc1` it is 0.661%.
As for `CCCOc1ccc(C(=O)Nc2ccc(NC(=O)c3cccs3)cc2)cc1`, the “% Inhibition @ 10 uM” value is 4.94%.
The figure for `Cc1cc(C)c(S(=O)(=O)Nc2ccccc2C(F)(F)F)c(C)c1` is 4.03%; for `COc1ccc(CN(C)C2CCN(C)CC2)c(OC)c1` it is -6.47%.
The result for `COC(=O)Nc1ccc2c(c1)N(C(=O)CCN1CCOCC1)c1ccccc1CC2` reads -1.32%; that for `OC(c1ccccc1)c1nc2ccccc2n1Cc1ccc(F)cc1` (centres unmarked), -2.5%; that for `Cc1oc(-c2ccc(Cl)cc2)nc1CN1CCC(C(=O)NC(C)c2ccccc2)CC1` (centres unmarked), -1.05%.
The figure for `CCOC(=O)c1c(NC(=O)c2cc(-c3ccc(O)cc3)on2)sc2c1CCCC2` is 0.723%; for `CC(=O)N1c2ccccc2C2(CC(=O)N(Cc3ccccc3)C2=O)C1/C=C/c1ccccc1` (centres unmarked) it is 5.61%; for `OCC1CCCN1Cc1ccc(F)c(F)c1` (centres unmarked) it is -2.95%.
As for `Cc1ccc2c(CC(=O)O)coc2c1C`, the “% Inhibition @ 10 uM” value is reported as -1.11%.
The result for `COc1cc2c(CC(=O)Nc3ccccc3)c(O)c(C)c(NCc3ccccc3)c2cc1OC` reads 13.4%; that for `CCc1ccc(-n2nnc(-c3nc(-c4ccccc4)no3)c2N)cc1`, -6.26%.
For the compound `CCC(=O)OC1(c2ccccc2)CCN(C)C(C)C1C` (centres unmarked), the “% Inhibition @ 10 uM” value is given as -1.91%.
With `COc1ccc(Cl)cc1NC(=O)CN(C)S(=O)(=O)c1c(C)cc(C)cc1C`, the “% Inhibition @ 10 uM” value is reported as -4.12%.
The figure for `COc1cc(OC)c2c(C)c(C(=O)c3ccccc3)oc2c1` is -0.25%.
The figure for `CC(C)(C)C1(C)OC(=O)C(=Cc2ccc(C(=O)O)cc2)C(=O)O1` (centres unmarked) is 3.47%.
The result for `CCc1ccc(N2C(=O)CC(N3CCC(C(N)=O)CC3)C2=O)cc1` (centres unmarked) reads 3.86%.
As to `CCN1CCN(c2ccc(NC(=O)Cc3ccccc3)cc2)CC1`, the “% Inhibition @ 10 uM” value stood at 2.84%.
Consider `CCOc1ccc(NC(=O)CCc2ccccc2)cc1`, for which the “% Inhibition @ 10 uM” value amounted to 0.431%.
The figure for `COc1ccc2ncc(S(=O)(=O)c3ccc(C)cc3)c(N3CCN(C)CC3)c2c1` is -9.48%; for `COc1cccc(NC(=O)c2cnccn2)c1` it is -1.96%.
In the case of `COc1ccccc1CNC(=O)c1ccc(F)cc1`, the “% Inhibition @ 10 uM” value turned out to be 2.26%.
